24 compounds from publication PMC4336329 (PLoS ONE, 2015) can be followed below.

Each structure is given as a SMILES string. The whole screen tested about 310,000 compounds, of which about 14,000 (4.5%) showed an effect of 50% or more. The effect is printed as a negative number. The list shows a part of the results.
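Also: peak tail current of the secondary pulse compared with the same well before compound.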

The target of the experiment is human ether-à-go-go-related gene (hERG) potassium channel (human, UniProt Q12809). Put plainly: primary screen, population patch clamp on CHO cells stably expressing hERG.
Chain of human ether-à-go-go-related gene (hERG) potassium channel (Q12809 whole entry, looked up): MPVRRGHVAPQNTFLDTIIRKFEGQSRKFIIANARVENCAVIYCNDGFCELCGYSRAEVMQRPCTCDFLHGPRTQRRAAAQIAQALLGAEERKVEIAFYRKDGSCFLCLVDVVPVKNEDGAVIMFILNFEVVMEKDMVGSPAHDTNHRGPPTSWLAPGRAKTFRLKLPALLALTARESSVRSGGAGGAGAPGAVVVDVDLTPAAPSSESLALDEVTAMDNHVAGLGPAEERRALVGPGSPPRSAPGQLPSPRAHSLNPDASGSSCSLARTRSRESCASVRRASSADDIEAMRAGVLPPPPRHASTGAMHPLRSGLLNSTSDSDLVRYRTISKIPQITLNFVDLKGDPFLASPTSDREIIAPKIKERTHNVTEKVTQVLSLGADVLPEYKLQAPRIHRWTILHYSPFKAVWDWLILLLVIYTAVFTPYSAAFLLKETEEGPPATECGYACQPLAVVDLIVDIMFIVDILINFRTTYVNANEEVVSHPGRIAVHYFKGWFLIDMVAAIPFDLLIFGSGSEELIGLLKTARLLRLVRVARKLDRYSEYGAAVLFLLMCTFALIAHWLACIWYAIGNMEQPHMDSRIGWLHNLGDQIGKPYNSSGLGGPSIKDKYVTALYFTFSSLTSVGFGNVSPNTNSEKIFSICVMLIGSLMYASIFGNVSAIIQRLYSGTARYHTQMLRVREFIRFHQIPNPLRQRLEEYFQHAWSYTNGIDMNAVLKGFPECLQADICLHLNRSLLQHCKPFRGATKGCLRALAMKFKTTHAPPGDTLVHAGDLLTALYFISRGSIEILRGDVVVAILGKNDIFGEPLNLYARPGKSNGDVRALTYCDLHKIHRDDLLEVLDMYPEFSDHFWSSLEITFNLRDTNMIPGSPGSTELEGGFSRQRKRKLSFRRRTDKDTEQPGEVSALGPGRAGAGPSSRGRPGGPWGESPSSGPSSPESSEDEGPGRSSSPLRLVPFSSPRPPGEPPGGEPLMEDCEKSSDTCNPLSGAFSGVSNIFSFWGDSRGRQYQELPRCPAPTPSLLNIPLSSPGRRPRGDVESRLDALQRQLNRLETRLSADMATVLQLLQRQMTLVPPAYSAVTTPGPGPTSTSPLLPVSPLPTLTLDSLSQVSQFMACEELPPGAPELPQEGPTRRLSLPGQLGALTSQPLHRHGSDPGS
For `Cc1ccc(C)c(NCC(=O)c2ccc(Cl)cc2)c1`, the “hERG current change (%, negative = inhibition) at 10uM” value was determined as 21.7%. Under `Cc1ccc(S(=O)(=O)NCc2ccncc2)c(C)c1C` stands 17.5%. Regarding `O=C(COC(=O)c1ncc(Cl)c(Cl)c1Cl)NC1CCS(=O)(=O)C1` (stereo not drawn), the “hERG current change (%, negative = inhibition) at 10uM” value is on record as -25.5%. In the case of `CC(C)NC(=O)C(c1ccc(F)cc1)N(C(=O)CCC(=O)Nc1ccccn1)C1CCCCC1` (stereo not drawn), the “hERG current change (%, negative = inhibition) at 10uM” value is reported as -4.26%. Under `CCOC(=O)CC(=O)CSc1ncc(C(=O)OCC)c(N)n1` stands -0.281%; under `N#Cc1c(SCC(N)=O)nsc1SCc1ccc(Cl)cc1`, -0.34%.

As to `Cc1ccc(CCNC(=O)C2CC(c3cccc(F)c3)=NO2)cc1` (stereo not drawn), the “hERG current change (%, negative = inhibition) at 10uM” value is on record as 0.919%. On to `COC(=O)c1c(NC(=O)CN2CCC(C(N)=O)CC2)c2c(C)cccc2n1C`, for which the “hERG current change (%, negative = inhibition) at 10uM” value was 4.22%. The result for `CCc1ccc(C2CC(c3ccco3)=NN2S(C)(=O)=O)cc1` (stereo not drawn) reads 9.31%. Turning to `O=C(Cc1ccc(S(=O)(=O)N2CCOCC2)s1)NCC(=O)Nc1ccccc1Br`, the “hERG current change (%, negative = inhibition) at 10uM” value is reported as -2.67%. As for `O=C(CN1C(=O)NC(Cc2ccccc2)C1=O)Nc1ccccc1` (stereo not drawn), the “hERG current change (%, negative = inhibition) at 10uM” value was found to be 6.7%. Regarding `COc1ccc(N(CC(=O)NCCOc2ccccc2)S(=O)(=O)c2ccc(C)cc2)cc1`, the “hERG current change (%, negative = inhibition) at 10uM” value is given as -54.8%.

As to `Cc1ccc(N2CC(=O)N(NC(=O)c3sc4nc(C)cc(C)c4c3N)CC2=O)cc1`, the “hERG current change (%, negative = inhibition) at 10uM” value is 14.2%.

`Cc1cc(C)nc(SCC(=O)Nc2ncc(Cc3ccc(Cl)c(Cl)c3)s2)n1`: the “hERG current change (%, negative = inhibition) at 10uM” value was -4.72%. `CN(C)C(CNC(=O)c1ccc2c(=O)n(-c3ccccc3F)c(=S)[nH]c2c1)Cc1ccccc1` (stereo not drawn): the “hERG current change (%, negative = inhibition) at 10uM” value came out at 4.97%. Consider `O=C1/C(=C/c2ccccc2Cl)N2CCC1CC2`, for which the “hERG current change (%, negative = inhibition) at 10uM” value is reported as -14.1%.

`Cc1ccnc(NS(=O)(=O)c2ccc(NC(=O)C34CC5CC(C)(CC(C)(C5)C3)C4)cc2)n1`: the “hERG current change (%, negative = inhibition) at 10uM” value is on record as -9.93%.

As for `COc1ccc(NC(=O)c2cc(C(C)C)on2)cc1OC`, the “hERG current change (%, negative = inhibition) at 10uM” value is 9.04%. Under `COC(=O)c1sc2ccccc2c1-n1cccc1C(=O)C(=O)Nc1ccc(Cl)cc1` stands 0.698%; under `C/C(CC(=O)NC12CC3CC(CC(C3)C1)C2)=N\NC(=O)Cc1cccs1`, 0.292%; under `Cc1cccc(C)c1NC(=S)N(C)CCc1ccccn1`, 3.68%. As to `COc1cc2c(c(OC)c1OC)CCc1cnoc1-2`, the “hERG current change (%, negative = inhibition) at 10uM” value is -1.27%. Under `Cc1cc(C)[n+](CCCC[n+]2c(C)cc(C)cc2C)c(C)c1.[O-][Cl+3]([O-])([O-])[O-]` stands 2.24%. Consider `O=C(N/C(=C\c1cccc([N+](=O)[O-])c1)C(=O)N(CCO)CCO)c1ccco1`, for which the “hERG current change (%, negative = inhibition) at 10uM” value worked out at 13.4%.
